In all, about 310,000 compounds went through this assay and about 2,200 (0.71%) showed an effect of 50% or more. The effect is printed as a negative number. The list shows a part of the results.
What follows are molecules tested against human ether-à-go-go-related gene (hERG) potassium channel (human, UniProt Q12809) (assay: primary screen, population patch clamp on CHO cells stably expressing hERG).
human ether-à-go-go-related gene (hERG) potassium channel, sequence (Q12809 whole entry, looked up): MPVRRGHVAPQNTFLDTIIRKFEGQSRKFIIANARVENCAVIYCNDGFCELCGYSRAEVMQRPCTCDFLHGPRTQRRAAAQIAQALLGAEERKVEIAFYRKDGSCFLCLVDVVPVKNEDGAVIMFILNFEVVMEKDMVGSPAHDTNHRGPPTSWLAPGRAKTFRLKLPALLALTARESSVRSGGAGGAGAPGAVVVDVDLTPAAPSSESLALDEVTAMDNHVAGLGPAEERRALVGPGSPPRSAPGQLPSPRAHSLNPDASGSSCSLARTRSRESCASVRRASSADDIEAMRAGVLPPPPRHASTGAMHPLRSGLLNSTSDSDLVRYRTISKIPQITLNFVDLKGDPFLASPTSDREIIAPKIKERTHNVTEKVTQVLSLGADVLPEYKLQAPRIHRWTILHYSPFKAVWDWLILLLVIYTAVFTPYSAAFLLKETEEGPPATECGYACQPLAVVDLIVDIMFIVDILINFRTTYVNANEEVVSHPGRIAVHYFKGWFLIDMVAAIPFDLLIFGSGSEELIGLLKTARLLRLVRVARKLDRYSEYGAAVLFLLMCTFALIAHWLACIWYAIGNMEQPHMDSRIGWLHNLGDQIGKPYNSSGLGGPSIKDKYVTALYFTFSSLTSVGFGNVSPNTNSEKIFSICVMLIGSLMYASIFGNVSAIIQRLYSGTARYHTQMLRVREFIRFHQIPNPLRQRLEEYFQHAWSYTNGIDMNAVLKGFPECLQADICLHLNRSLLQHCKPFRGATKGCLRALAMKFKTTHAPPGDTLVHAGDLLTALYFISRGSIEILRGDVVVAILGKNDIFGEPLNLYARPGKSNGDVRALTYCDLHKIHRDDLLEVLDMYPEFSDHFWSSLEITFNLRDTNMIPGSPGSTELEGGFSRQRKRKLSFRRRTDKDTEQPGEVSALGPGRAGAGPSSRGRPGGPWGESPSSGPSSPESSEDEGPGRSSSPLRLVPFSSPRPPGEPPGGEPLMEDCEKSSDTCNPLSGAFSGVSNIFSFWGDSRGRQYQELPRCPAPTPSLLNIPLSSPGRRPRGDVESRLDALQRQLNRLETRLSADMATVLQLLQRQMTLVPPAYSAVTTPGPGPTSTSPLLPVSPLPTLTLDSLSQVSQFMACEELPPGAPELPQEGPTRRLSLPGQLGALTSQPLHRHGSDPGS

| Compound | hERG current change (%, negative = inhibition) at 1uM |
| --- | --- |
| CC(C)(C)c1nc2ccccc2c2nnc(SCC(=O)Nc3nc4ccccc4s3)n12 | 7.47% |
| CCOC(=O)C1C(=O)C=C(c2cccs2)CC1c1ccccc1 (centres unmarked) | 10.8% |
| O=C(COc1ccccc1)NCCSCc1ccco1 | 11.8% |
| Cc1cnccc1CN(C)Cc1cn(C)nc1-c1cccc(Cl)c1 | 7.15% |
| Cc1oc2cc(OCc3cnn(-c4ccccc4)c3)ccc2c(=O)c1Oc1ccccc1F | 3.03% |
| Cc1cc(C)nc(SCC(=O)N/N=C\c2sccc2C)n1 | 5.1% |
| CC1=C(C(=O)N2CCOCC2)C(c2cc(C)cs2)NC(=O)N1 (centres unmarked) | 7.45% |
| COC(=O)c1cnc(Oc2ccc(NC(=O)NC(=O)c3c(OC)cccc3OC)cc2)cc1C(F)(F)F | -0.442% |
| CCOc1ccccc1NC(=O)Nc1ccc(Br)cn1 | 11.4% |
| Cc1ccc(OCC(O)CN2CCN(CC(O)COc3ccc(C)cc3)CC2)cc1 (centres unmarked) | -8.83% |
| COCCNc1cc(C)nc2ccccc12.Cl | 0.614% |
| CCOC(=O)N1CCN(C(=O)c2ccc(Cl)c(S(=O)(=O)Nc3ccccc3)c2)CC1 | 10.7% |
| COc1ccc(C(=O)N2CCC(C(=O)O)CC2)c2ccccc12 | 9.5% |
| COc1ccc(CCNC(=O)CS(=O)(=O)c2cn(CC(=O)N(C(C)C)C(C)C)c3ccccc23)cc1OC | 5.26% |
| O=S(=O)(NCc1ccc2c(c1)OCO2)c1ccc(Cl)s1 | 2.1% |
| Cc1ccc(NC(=O)C/C(N)=N/O)cc1C | 9.79% |
| CC(=O)c1c(N2CCOCC2)nc(=S)n(-c2ccccc2)c1C | 8.88% |
| COCCNc1nc(-c2ccc(OC)cc2)c(-c2ccc(OC)cc2)s1 | 16% |
| CN1C[C@H](C(=O)NC2(C)OC3(O)[C@@H]4CCCN4C(=O)[C@H](Cc4ccccc4)N3C2=O)CC2c3cccc4[nH]cc(c34)C[C@H]21.CS(=O)(=O)O (some centres unmarked) | 6.02% |
| CCOc1cc(/C=C(\C#N)C(=O)Nc2ccccc2C(=O)O)ccc1OC(=O)c1ccc(C)cc1 | 15.7% |
| Cl.FC(F)(F)c1cccc(N2CCNCC2)c1 | -4% |
| O=C1Nc2ccccc2C1=Nc1ccc(S(=O)(=O)Nc2nccs2)cc1 | 10.5% |

| Compound | hERG current change (%, negative = inhibition) at 1uM |
| --- | --- |
| CCCn1c(=O)c2ccccc2n2c(SCCOc3ccc(Cl)cc3)nnc12 | 1.37% |
| O=C(Nc1ccc(N2CCOCC2)c(F)c1)c1cccs1 | 2.63% |
| O=C(/C=C/c1ccc(Cl)cc1)NCCCN1CCOCC1 | -21.1% |
| CC(C)NC(=O)/C(=C/c1cn(-c2ccccc2)nc1-c1cccc([N+](=O)[O-])c1)NC(=O)c1ccccc1 | 4.69% |
| COCc1nc(-c2cc(OC)c(OC)c(OC)c2)no1 | -8.59% |
| Cc1nc2c(-c3ccccc3)c(C)[nH]n2c(=O)c1Cl | 4.53% |
| COc1cc([N+](=O)[O-])cc(/C=N/NC(=O)CSc2ccccn2)c1O | 6.72% |
| CC1(C)Cc2c(cnn2-c2ccc(F)cc2)C(NC(=O)CN2CCCCC2=O)C1 (centres unmarked) | 8.93% |
| O=C(CSc1nnc(Cc2cccs2)n1C1CCCCC1)N1CCN(C(=O)c2ccco2)CC1 | 7.24% |
| O=C(N/N=C/c1cccc2ccccc12)c1ccncc1 | 14.3% |
| Cc1ccc(CNC(=O)CCCc2cn(C)c3ccccc23)cc1 | 15.5% |
| CN1[C@H]2CC[C@@H]1C(C(=O)N1CCOCC1)=C(O)C2 | 14% |
| CN(CC(=O)Nc1ccc(F)cc1)c1ccc(S(=O)(=O)N2CCCCC2)cc1[N+](=O)[O-] | 2.32% |
| OCCN(Cc1ccccc1)Cc1cccc(C(F)(F)F)c1 | 10.9% |
| CCc1ccc(NC(=O)N(Cc2ccco2)C(C)c2cccs2)cc1 (centres unmarked) | 17.2% |
| Nc1cc(N2CCCC2)c(Cl)cc1[N+](=O)[O-] | 16.9% |
| Cc1ccc(NC(=O)c2noc(C(C)C)c2[N+](=O)[O-])cc1 | 4.81% |
| O=C(CCC(=O)NNC(=S)Nc1ccccc1)NCc1ccccc1 | 20.1% |
| O=C(COc1ccc(S(=O)(=O)NC2CCCCC2)cc1)N1CCN(c2ccc(F)cc2)CC1 | -9.18% |
| COc1ccc(CNC(=O)C/C(C)=N/NC(=O)c2cnccn2)cc1 | 20.4% |
| COc1cccc(N2CCN(Cc3ccco3)CC2)c1 | 12% |
| O=C(NC12CC3CC(CC(C3)C1)C2)N1CCN(C(=O)C2CCCO2)CC1 (centres unmarked) | 11.7% |

| Compound | hERG current change (%, negative = inhibition) at 1uM |
| --- | --- |
| COc1ccc(NC(C)=O)cc1S(=O)(=O)Nc1ccccc1C(=O)N1CCCC1 | 4.48% |
| COc1cc(CNCc2ccccn2)ccc1OCC(=O)NC(C)(C)C.Cl | 3.61% |
| CC(C)N(C(=O)CSc1nc2ccccc2n1Cc1ccccc1)C(C)C | -8.14% |
| COC(=O)c1ccc2c(=O)[nH]c(CSc3nc(-c4ccc(F)cc4)cs3)nc2c1 | 13.2% |
| CN1/C(=C\C(=O)c2oc3ccccc3c2N)C(C)(C)c2ccccc21 | 17.2% |
| Fc1cccc(F)c1CN1CCN(c2ncccn2)CC1 | 16.7% |
| O=C(COC(=O)c1cc[n+]([O-])cc1)Nc1cc([N+](=O)[O-])ccc1Cl | 13.7% |
| COCCNC(=O)/C(C#N)=C/C=C/c1ccccc1[N+](=O)[O-] | 11.3% |
| NC(=O)c1c(NC(=O)C2CC=CCC2C(=O)O)sc2c1CCCCC2 (centres unmarked) | 15.4% |
| CC(NC(=O)C(C)N1C(=O)c2ccccc2C1=O)c1ccccc1 (centres unmarked) | 7.23% |
| Cc1ccc(NC(=S)NCCc2ccccc2)nc1 | 7.22% |
| COc1cc2cc(CN(CCN3CCCC3)C(=O)Nc3ccc(F)cc3)c(=O)[nH]c2cc1OC | 3.06% |
| Cc1noc(NS(=O)(=O)c2ccc(NC(=O)C34CC5CC(C3)CC(n3cnc(Br)n3)(C5)C4)cc2)c1C | 9.86% |
| O=C(NCCCn1ccnc1)C(=O)NCC1OCCCN1S(=O)(=O)c1ccc(F)cc1 (centres unmarked) | 5.99% |
| COC(=O)c1ccc(CN2CCCC(CO)(Cc3ccc(F)cc3F)C2)cc1 (centres unmarked) | -8.99% |
| COc1ccc(NC(=O)CCC(=O)c2ccc(-c3ccccc3)cc2)cc1 | 8.94% |
| CCN(C(=O)c1ccco1)c1nnc(-c2ccc(OC)cc2)s1 | 10% |
| Nc1c(C(=O)c2ccccc2)oc2ccccc12 | 13.5% |
| Cc1ccc(/C=N/NC(=O)CNC(=O)COc2ccccc2)o1 | 2.85% |
| N#C/C(=C\c1cccnc1)C(=O)Nc1ccccc1 | 10.8% |
| CCCSc1nnc(-c2cccc(S(=O)(=O)N(C)C)c2)n1-c1cc(OC)ccc1OC | -1.69% |
| O=C(NCC(c1ccco1)N1CCCC1)c1ccc(Cl)c(S(=O)(=O)N2CCc3ccccc32)c1 (centres unmarked) | 14.4% |

| Compound | hERG current change (%, negative = inhibition) at 1uM |
| --- | --- |
| Cc1nc(CNS(=O)(=O)c2ccccc2F)cs1 | -0.287% |
| COc1ccccc1N1CC(C(=O)NCCN2C(=O)S/C(=C\c3cccnc3)C2=O)CC1=O (centres unmarked) | 10.7% |
| Cc1cc(NS(=O)(=O)c2ccc(NC(=O)CCCC(=O)O)cc2)nc(C)n1 | 9.18% |
| O=c1[nH]c(SCc2ccc(Cl)cc2)nc2ccsc12 | -9.75% |
| Cc1ccc(NC(=O)CN2CCN(Cc3ccccc3)CC2)cc1F | -29.3% |
| CCC1=NN(C(=O)COc2ccccc2C)C(O)(c2ccncc2)C1 (centres unmarked) | 1.74% |
| O=C(NCN1CCN(c2ccccc2F)CC1)c1ccccc1 | 5.34% |
| COc1ccc(-c2nc3c(s2)CCc2onc(-c4ccc(Br)cc4)c2-3)cc1 | 12% |
| COC(=O)[C@@H](NCc1cccc(CN[C@H](C(=O)OC)C(C)C)c1)C(C)C | 10.6% |
| O=[N+]([O-])c1c(-c2cn[nH]c2)n[nH]c1-c1cn[nH]c1 | 14.6% |
| COC(=O)C1=C(C(=O)OC)[C@@H]2N(C)c3ccc(OC)cc3[C@@]23C[C@@H](C(=O)OC)N(C(=O)C2CCC2)C3=N1 | -6.84% |
| Cc1ccc(C)c(OCc2nnc(NC(=O)c3ccc4c(c3)OCO4)s2)c1 | 6.46% |
| CC(C)C(=O)Nc1ccc(C(=O)NNC(=O)CCc2ccccc2)cc1 | 10.1% |
| CC/C(=N\NC(=O)c1ccccc1O)c1c(O)n(Cc2ccccc2)c(=O)[nH]c1=O | 7.24% |
| Cc1ccc(N2CCN(c3ccc(C)cc3)C2c2ccccn2)cc1 | 4.25% |
| Br.OCCn1c(-c2ccccc2)csc1=Nc1ccccc1 | -7.29% |
| O=C(CSc1nc2ccccc2s1)NCCOc1ccccc1 | 0.807% |
| COc1ccc(N(CC(=O)NCCSCc2ccco2)S(=O)(=O)c2ccccc2)cc1 | 4.63% |
| Cc1cccc(CCNC(=O)C2CCC(=O)N(Cc3ccc(Cl)cc3)C2)n1 (centres unmarked) | 8.54% |
| CCSc1ccc([C@@H]2[C@H]3C(=O)N(C)C(=O)[C@H]3[C@]3(C(=O)OC)CCCCN23)cc1OC.O=C(O)C(F)(F)F | 11.2% |
